# Assay results as given in PubChem BioAssay AID686978 (National Center for Advancing Translational Sciences (NCATS), 2013).
# Screen size: about 420,000 compounds; about 64,000 (15%) were called active. Inconclusive results, whose numbers are uncertain, are shown with a selection of clear calls. The call rests on the fitted dose curve; in most records, active means well fitted inhibition curve with a large enough effect; inconclusive means small, poorly fitted or top-dose-only effect; inactive means flat fitted curve, though single readings scatter. Potencies of inconclusive entries are left out as doubtful fits.
# Assay: qHTS for Inhibitors of human tyrosyl-DNA phosphodiesterase 1 (TDP1): qHTS in cells in absence of CPT; further: nearly all actives have a fitted effect of over 55% in size
# Details: DT40 Tdp1-/- hTDP1 cells, no CPT, ATP luminescence, 48 h; activity change, negative = growth inhibition: at 46.2 µM (top of the series) unless noted
# Summary of the method: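 Growth kinetics read by CellTiter-Glo luminescence after ≥48 hr at 37 °C. Cells: DT40 Tdp1-/- stably carrying human TDP1, 400 per well, compound exposure in the absence of CPT (DMSO vehicle).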
# On the % scale 0 is the no-effect control and ±100 the full control effect; potency means the concentration at half of the fitted maximal effect; tags describe the fitted curve by direction and shape.
SMILES,Potency,"activity change, negative = growth inhibition"
CC(C)c1ccc(N(CC(=O)O)S(=O)(=O)c2ccc3[nH]c(=O)c(=O)[nH]c3c2)cc1,inactive,
CCOC(=O)Nc1ccc2c(COC(=O)CN(C)S(=O)(=O)c3ccc(C)cc3)cc(=O)oc2c1,"inconclusive [inhibitor, partial curve]",
COc1ccc(Br)cc1CNC(=O)CN1C(=O)c2cccnc2Oc2ccc(C)cc21,active: 11.6 µM,
Cc1ccc2oc(C(=O)Nc3ccc(S(=O)(=O)Nc4nccc(C)n4)cc3)cc(=O)c2c1,"inconclusive [inhibitor, partial curve]",
CCn1c(=O)c2cc(C(=O)N(C)c3ccccc3F)sc2c2ccccc21,active: 14.6 µM,
COc1ccc(-c2cc3c(c4c2ccn4C)C2CCC3O2)cc1OC (stereo not given),"inconclusive [inhibitor, single point]",
COCc1ccc(C(=O)NC2CCCc3c2cnn3-c2ccc(C)c(C)c2)o1 (stereo not given),"inconclusive [inhibitor, partial curve]",
CCc1cccc2c(C(=O)CSc3nnc(-c4ccoc4C)n3C)c[nH]c12,"inconclusive [inhibitor, partial curve]",
COc1ccc(C2CCCN2C(=S)Nc2cccc(Cl)c2)cc1OC (stereo not given),"inconclusive [inhibitor, single point]",
CC(C)C(OC(=O)c1cccc(S(=O)(=O)NCC(F)(F)F)c1)C(=O)NC(N)=O (stereo not given),"inconclusive [inhibitor, single point]",
CCOc1ccc(C(=O)Nc2cc3c(cc2N2CCCC2)n(C)c(=O)c(=O)n3C)cc1OCC,"inconclusive [inhibitor, single point]",
Cc1cc(C(=O)N2CCN(S(=O)(=O)c3ccc(F)c(Cl)c3)CC2)c(C)o1,"inconclusive [inhibitor, partial curve]",
c1ccc(C2=Nn3c(nnc3-c3cccs3)SC2)cc1,,inconclusive: -34% [inhibitor]
CCC(=O)N1CCc2cc(S(=O)(=O)NCCC(=O)N3CCN(c4ccccn4)CC3)ccc21,"inconclusive [inhibitor, partial curve]",
Fc1ccc(CNc2ccn3nc(-c4ccccc4)cc3n2)cc1,"inconclusive [inhibitor, single point]",
O=C1OCc2nc3cc4c(cc3c(-c3ccc(F)cc3)c21)OCO4,"inconclusive [inhibitor, single point]",
COc1ccccc1NC(=O)Nc1ccnn1C1CCCCC1,"inconclusive [inhibitor, partial curve, poor fit]",
O=c1cc(Nc2ccc3c(c2)OCCO3)[nH]c(=O)n1-c1ccc(Br)cc1,"inconclusive [inhibitor, partial curve]",
OCC1OC(n2cnc3c(N4CCCC4)ncnc32)C(O)C1O (stereo not given),"inconclusive [inhibitor, single point]",
NC(=O)C1CCN(C(=O)COc2cccc3ccccc23)CC1,"inconclusive [inhibitor, partial curve]",
COc1ccc(NC(=O)C2CCCC2)cn1,inactive,
COc1ccc(Br)c(Cn2c(C)c(C(=O)NCc3ccccc3C(F)(F)F)sc2=O)c1,"inconclusive [inhibitor, single point]",
O=C(Nc1ccccc1)Nc1ccc(C(F)(F)F)cn1,,inconclusive: -30.5% [inhibitor]

SMILES,Potency,"activity change, negative = growth inhibition"
C=CCC[C@@H](Cc1ccc(F)cc1)C(=O)OC[C@@H]1CCCN1C(=O)[C@@H](CC=C)CC(=O)N(CCO)Cc1ccccc1,active: 18.4 µM,
COC(=O)N1CCC2(CCCN(c3ccncc3)C2)CC1,inactive,
COc1cccc(NC(=S)N2CCN(c3ccc([N+](=O)[O-])cc3)CC2)c1,active: 10.3 µM,
O=C1c2[nH]nc(-c3ccc(F)cc3)c2C(c2ccccc2F)N1c1ccccc1 (stereo not given),active: 20.6 µM,
COc1ccc(C2=Nc3ccccc3NC(=O)C2N(Cc2ccc(F)cc2)C(=O)c2ccco2)cc1 (stereo not given),"inconclusive [inhibitor, single point]",
C=C1C=C(C(F)F)n2ncc(C(=O)NCc3ccccc3)c2N1,"inconclusive [inhibitor, single point]",
COc1ccc(C(=O)C(=O)c2ccc(OCCO)cc2)cc1,inactive,
O=C(NC(=S)N1CCc2ccccc21)c1ccco1,"inconclusive [inhibitor, single point]",
CCC(=O)c1ccc(OC(=O)Cc2ccc(OC)cc2)cc1,inactive,
Cc1oc2cc3oc(=O)c(CCC(=O)NC4CC4)c(C)c3cc2c1C,active: 9.2 µM,
CC[N+](C)(C)c1ccc(/C=C/c2ccc3ccccc3n2)cc1,"inconclusive [inhibitor, full curve, poor fit]",
COC(=O)c1ccc(/C=C/c2c(-c3ccc(OC)cc3)oc3ccc(N4CCOCC4)cc23)cc1,active: 23.1 µM,
COCCNC(=O)c1ccc(N2CC3CC(C2)c2cccc(=O)n2C3)c(NC(=O)c2ccc(Br)o2)c1 (stereo not given),inactive,
O=C1CCCCCN1C(=O)c1ccccc1,inactive,
CCCCCNC(=O)C1C(=O)Nc2ccccc2C(=O)N1C(C)(C)C (stereo not given),inactive,
COc1ccc(NC(=O)c2ccc3ncsc3c2)cc1,inactive,
O=C(c1ccccc1)N1N=C(c2ccc(F)cc2)CC1(O)C(F)(F)F (stereo not given),"inconclusive [inhibitor, single point]",
O=C(c1ccc(N2CCN(C(=O)c3cccc(F)c3)CC2)cc1)c1cccc(F)c1,"inconclusive [inhibitor, single point]",
CCc1ccc(NC(=O)CCc2c(C)nn(-c3ccc(N4CCOCC4)nn3)c2C)cc1,"inconclusive [inhibitor, single point]",
CCc1ccc(NC(=S)N(Cc2cccc(Br)c2)CC2CCC(C(=O)O)CC2)cc1 (stereo not given),"inconclusive [inhibitor, partial curve]",
CC(=Nc1ccc(C)cc1C)c1sc2ccccc2c1O,active: 18.4 µM,
CCC(C)Cn1cnc2c(SCc3ccccc3F)nc(N)nc21 (stereo not given),active: 20.6 µM,
